Read counts are not given, so values of variants with three or more changes are uncertain.

Sequences and labels used below:
B1: CPEB3 Ribozyme (parent)
chain: UAACAGGGGGCCACAGCAGAAGCGUUCACGUCGCAGCCCCUGUCAGAUUCUGGUGAAUCUGCGAAUUCUGCUGUAUAUCUC

Variants of B1 are the subject of this series. The series is described as follows: self-cleavage, relative activity (ratio to wild type); higher = more cleavage; in vitro, sequencing. In short, it runs like this: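 Relative activity compares each variant's cleaved/total read fraction with that of the unmutated ribozyme. To get these fractions, barcoded CPEB3 ribozyme libraries from rounds of error-prone PCR were transcribed with T7 RNA polymerase for 5 hours at 37°C and then given 15 min of DNase I treatment before EDTA was added. The RNAs were reverse transcribed with template switching and sequenced on Illumina, and DNA sequencing linked barcodes to variants. A minimum of 5 reads applied, and three batches were averaged.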
As to UAACAGGGGGCCACAGCAGAAGCGUUCGCGUCGCAGCCCCUGUCAGAUUAUGGUGAGUCUGCGAAUUCUGCUGAAUAUCUC [A28G C50A A57G U74A], the self-cleavage is 0.58.

Turning to UAACAGGGGGCCACAGCAGAAGCGUUCGCGUCGCAGCACCUGUCUGACUCUGGUGAAUCUGCGAAUUCAGCUGUAUAUCUC [A28G C38A A45U U48C U69A], the self-cleavage was determined as 0.05.

On to UAACAGGGGGCCACAGCAGAAGCGUUCGCGUCGCAGACACUGUCAGAUUCUGGUGGAUCUACGAAUUCUGCUGUAUAUCUC [A28G C37A C39A A56G G61A], for which the self-cleavage worked out at 0.06.

Consider UAACAGGGGGCCACAGCAGAAGCGUUCGCAUCGCAGCCCCCGACAGAUUCUGGUGAAUCUGCGAAUUCUGCUGUAUAUCCC [A28G G30A U41C U43A U80C], for which the self-cleavage was determined as 0.13.

As to UAACAGGGGGCCACAGCAGAAGCGUUCGCGUCGCAGCCCCUGUCAGAUUCUGGUGAAUCUGUGAAUUCUGCUGUACAUCUC [A28G C62U U76C], the self-cleavage is 0.12.

With UAACAGGGGGCCACAGCAGAAGCGUUCGCGUCGCAGCCACUGUCAGAUUCUGGUGAAUCUGCGAACUCUACUGUAUAUCUC [A28G C39A U66C G70A], the self-cleavage amounted to 0.13.

As for UAACAGGGGGCCACAGCAGAAGCGUUCGCGUCACAGCCCCUGUCUGAUUCUGGUGAAACUGCGGAUUCUGCUGUAUAUCUC [A28G G33A A45U U58A A64G], the self-cleavage worked out at 0.12.

For UAACAGGGGGCCACAGCAGAAGCGUUCGCGUCGCAGCCCCUGUCAGAUUUUGGUGGAUCUGCGAAUUCUGCCGUAUAUCUC [A28G C50U A56G U72C], the self-cleavage is 0.52.

For UAACAGGGGGCCACAGCAGAAGCGUUCGCGUCGCAGCCCUUGUCAGAUUCUGGUGAAUUUGCGAAUUCUGCUGAAUAUCCC [A28G C40U C59U U74A U80C], the self-cleavage amounted to 0.59.

Consider UAACAGGGGGCCACAGCAGAAGCGUUCGCGUCACAGCCUCUGUCAGAUUCUGGUGAAUCUGCGAAUUCUGCUGUAUAUCUC [A28G G33A C39U], for which the self-cleavage was 0.14.

On to UAACAGGGGGCCACAGCAGAAGCGUUCGCGUCACAGCCCCUGUCAGACUCUGGUGAUUCUGCGAAUUCUGCUGUAUAUCUC [A28G G33A U48C A57U], for which the self-cleavage came out at 0.35.

As for UAACAGGGGGCCACAGCAGAAGCGUUCGCGUCGCAGCCCAUGUCAGAUUCUGGUGAAUCUGCGAAUUCUGCUGUAUUUCUC [A28G C40A A77U], the self-cleavage came out at 0.11.

For the variant UAACAGGGGGCCACAGCAGAAGCGUUCGCAUCGCAGCCCCUGUCAGAUUCUGGUGAAUCUGCGAAUCCUGCCGUAUAUCUC [A28G G30A U67C U72C], the self-cleavage came out at 0.05.

As for UAACAGGGGGCCACAGCAGAAGCGUUCGCAUCGCAGCCCCUGUCAGAUUCUGGUGAAUCUGCGAAUUCUGCCGUAUAUCCC [A28G G30A U72C U80C], the self-cleavage came out at 0.24.

With UAACAGGGGGCCACAGCAGAAGCGUUCGCGUCGCAGCACCUGUCAGAUUCUGGUGAAUCUGCGAAUUCUGCUGUAUACCUC [A28G C38A U78C], the self-cleavage turned out to be 0.15.

In the case of UAACAGGGGGCCACAGCAGAAGCGUUCGCGUCGCAGCUCCCGUCAGAUUCUGGUGGAACUGCGAAUUCCGCUGUAUAUCUC [A28G C38U U41C A56G U58A U69C], the self-cleavage came to 0.06.

As for UAACAGGGGGCCACAGCAGAAGCGUUCGCGUCGCAGCCCCUGUCAGAUUUAGGUGAAUCUGCGAAAUCCGCUGUAUAUCUC [A28G C50U U51A U66A U69C], the self-cleavage was determined as 0.15.

UAACAGGGGGCCACAGCAGAAGCGUUCGCGUCGCAGCACCCGUCAGAUUCUGGUGAACCUGCGAAUUCUGCAGUAUAUCUC [A28G C38A U41C U58C U72A]: the self-cleavage was 0.05.

UAACAGGGGGCCACAGCAGAAGCGUUCGCGUCACGGCCCCUGUCAGAUCCAGGUGAAUCUGCGAAUUCUGCUGUAUACCUC [A28G G33A A35G U49C U51A U78C]: the self-cleavage worked out at 0.2.

Consider UAACAGGGGGCCACAGCAGAAGCGUUCGCGUCGCAGCCCCUGUCAGAUUUUGGUGAAUCUGCGAAUUCUGCAGUAUAUCUC [A28G C50U U72A], for which the self-cleavage was determined as 0.17.

In the case of UAACAGGGGGCCACAGCAGAAGCGUUCGCGUCGCAGUCCCUGUCAGACUCAGGUGAAUCUGCGAAUUCUGCUGUAUAUCUC [A28G C37U U48C U51A], the self-cleavage turned out to be 0.06.

Consider UAACAGGGGGCCACAGCAGAAGCGUUCGCGUCGCAGCACCUGUCAGAUUCUGGUGAGUCUGCGAAUUCGGCUGUAUAUCUC [A28G C38A A57G U69G], for which the self-cleavage was determined as 0.07.

For the variant UAACAGGGGGCCACAGCAGAAGCGUUCGCGUCGUAGCCCCUGGCAGAUUCUGGUGAAUAUGCGAAUUCAGCUGUAUAUCUC [A28G C34U U43G C59A U69A], the self-cleavage worked out at 0.1.

Regarding UAACAGGGGGCCACAGCAGAAGCGUUCGCGUCGCAGCCUCUGUCAGAUUCUGGCGAAUCUGCGUAUUCUGCUGUAUAUCUC [A28G C39U U54C A64U], the self-cleavage came out at 0.11.

Turning to UAACAGGGGGCCACAGCAGAAGCGUUCGCGUCGCAGCCCCUGUUAGACUCUGGUGGAUCUGCGAAUUCUGCUGUAUAUCUC [A28G C44U U48C A56G], the self-cleavage was found to be 0.04.

UAACAGGGGGCCACAGCAGAAGCGUUCGCUUCGCAGCCCCUGCCAGAUUCUGGUGAAUCCGCGAAUUCUGCUGUAUAUCUC [A28G G30U U43C U60C]: the self-cleavage was found to be 0.03.

On to UAACAGGGGGCCACAGCAGAAGCGUUCGCGUCGCAGCCUCUGUCAGAUUCUGGUGAAUCAGCGAAUUCUGCUGUAUAUCUC [A28G C39U U60A], for which the self-cleavage came out at 0.08.

Turning to UAACAGGGGGCCACAGCAGAAGCGUUCGCGUCACGGCCCCUGUCAGAUUCUGGUGAAUCUGCGAAUUCUGCUGUAUAUCUC [A28G G33A A35G], the self-cleavage was 0.19.

Consider UAACAGGGGGCCACAGCAGAAGCGUUCGCGUCGCAGACCCUGUCAGAUUCUGGUGAAUCUGCGAAUUCUGCUGCAUAUCUC [A28G C37A U74C], for which the self-cleavage turned out to be 0.13.

For the variant UAACAGGGGGCCACAGCAGAAGCGUUCGCGUCGCAGCCGCUGUCAGAUACCGGUGAGUCUGCGAAUUCUGCUGUAUAUCUC [A28G C39G U49A U51C A57G], the self-cleavage came out at 0.14.

As for UAACAGGGGGCCACAGCAGAAGCGUUCGCAUCGCAGCCCCUGUCAGAUUCUGGUGAAUCUGCGAAUUCUGCUGUAUGUCUC [A28G G30A A77G], the self-cleavage turned out to be 0.07.

Take UAACAGGGGGCCACAGCAGAAGCGUUCGCGUCACAGCCCCUGUCAGAUUCUGGUGAAUCUGCGAAAUCUGCUGUAUAUCUC [A28G G33A U66A]: the self-cleavage was found to be 0.11.

Turning to UAACAGGGGGCCACAGCAGAAGCGUUCGCGUCGCAGCGCCUGUCGGAUUCAGGUGAAUCCGCGAAUUCUGCCGUAUAUCUC [A28G C38G A45G U51A U60C U72C], the self-cleavage was determined as 0.02.

As to UAACAGGGGGCCACAGCAGAAGCGUUCGCGUUGCAGCCCCUGUCAGAUUCUGGCGAACCUGCGAAUUCUGCUGUAUAUCUC [A28G C32U U54C U58C], the self-cleavage was found to be 0.08.
